{"source": "the supplement of paper PMC3334620", "note": "The full ranking holds about 33,000 sequences; the median of “E-score (-0.5 to 0.5)” is about -0.043, and the highest 2% start at about 0.37. The list shows a part of the results.", "data": [{"target": "T1, Upc2 (UniProt Q12151)", "T1 sequence": "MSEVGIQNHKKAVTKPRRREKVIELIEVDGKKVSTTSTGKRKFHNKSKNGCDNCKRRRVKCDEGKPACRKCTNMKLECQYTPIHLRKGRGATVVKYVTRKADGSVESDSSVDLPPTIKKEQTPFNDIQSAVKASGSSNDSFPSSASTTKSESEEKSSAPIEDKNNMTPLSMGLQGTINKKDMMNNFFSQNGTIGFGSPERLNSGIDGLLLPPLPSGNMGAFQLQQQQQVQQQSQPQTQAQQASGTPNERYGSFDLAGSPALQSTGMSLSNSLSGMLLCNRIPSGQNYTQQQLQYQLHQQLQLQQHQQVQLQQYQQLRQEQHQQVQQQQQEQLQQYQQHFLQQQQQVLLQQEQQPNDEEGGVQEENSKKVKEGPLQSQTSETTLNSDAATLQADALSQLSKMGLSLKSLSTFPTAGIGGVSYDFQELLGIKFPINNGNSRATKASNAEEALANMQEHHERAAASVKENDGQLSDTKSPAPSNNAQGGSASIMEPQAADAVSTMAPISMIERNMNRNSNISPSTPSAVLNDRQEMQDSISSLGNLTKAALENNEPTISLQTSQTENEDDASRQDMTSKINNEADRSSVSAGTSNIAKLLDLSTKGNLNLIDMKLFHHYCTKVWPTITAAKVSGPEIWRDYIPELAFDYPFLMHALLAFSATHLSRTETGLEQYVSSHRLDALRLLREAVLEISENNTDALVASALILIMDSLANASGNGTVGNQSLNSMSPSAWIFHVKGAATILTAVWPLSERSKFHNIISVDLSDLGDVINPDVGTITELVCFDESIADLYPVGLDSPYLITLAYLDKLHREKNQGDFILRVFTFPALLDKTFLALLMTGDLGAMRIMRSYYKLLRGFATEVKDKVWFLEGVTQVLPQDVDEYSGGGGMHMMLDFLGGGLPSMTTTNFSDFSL", "assay": "PBM E-score (8-mer binding enrichment) (E-score (-0.5 to 0.5)); higher = stronger / more preferred TF binding; most listed sequences are background and not binding sites", "settings": "protein concentration: 200 nM; construct: GST-full length", "outline": "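The E-score, a modified Wilcoxon-Mann-Whitney statistic, was computed by the Universal PBM Analysis Suite for every ungapped eight-base word pooled with its reverse complement. Scans behind it were normalised with masliner after bound GST-tagged yeast transcription factors were detected with fluorescent anti-GST. The proteins, at about 100-200 nM, had been applied to universal all-10-mer Agilent arrays made double-stranded by primer extension.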", "values": [{"sequence": "AACAATTG", "PBM E-score": -0.0877}, {"sequence": "ACAACAGT", "PBM E-score": -0.158}, {"sequence": "AACGGCAT", "PBM E-score": 0.252}, {"sequence": "CAGATGAC", "PBM E-score": -0.217}, {"sequence": "CTACTAGC", "PBM E-score": 0.0962}, {"sequence": "ACGACCCC", "PBM E-score": 0.188}, {"sequence": "GGCCCCCA", "PBM E-score": -0.3}, {"sequence": "CTTACCAA", "PBM E-score": 0.0826}, {"sequence": "CTATACCC", "PBM E-score": 0.0307}, {"sequence": "TGTCACAA", "PBM E-score": -0.0828}, {"sequence": "ACTAACCT", "PBM E-score": 0.042}, {"sequence": "CGGACGAG", "PBM E-score": -0.165}, {"sequence": "AATGAATA", "PBM E-score": 0.0213}, {"sequence": "GTACCGCA", "PBM E-score": 0.254}, {"sequence": "CCAACACG", "PBM E-score": 0.0432}, {"sequence": "GCCTGTCC", "PBM E-score": 0.0313}, {"sequence": "GATGCTGA", "PBM E-score": -0.111}, {"sequence": "ACGGAAAG", "PBM E-score": -0.0107}, {"sequence": "GACGCTAC", "PBM E-score": 0.0447}, {"sequence": "GGCCGCGA", "PBM E-score": -0.141}, {"sequence": "AGGAATTG", "PBM E-score": -0.0648}, {"sequence": "ATCCCGGG", "PBM E-score": -0.0355}, {"sequence": "CCGAGTAG", "PBM E-score": -0.0601}, {"sequence": "CAGCTGAA", "PBM E-score": -0.137}, {"sequence": "TCTTCACA", "PBM E-score": 0.0646}, {"sequence": "CGCACAAC", "PBM E-score": 0.14}, {"sequence": "ATCTCCGA", "PBM E-score": 0.0296}, {"sequence": "ATGAAGCC", "PBM E-score": -0.0698}, {"sequence": "GTGATATA", "PBM E-score": 0.036}, {"sequence": "CACCTAGC", "PBM E-score": -0.217}, {"sequence": "ACTGAGTC", "PBM E-score": 0.0333}, {"sequence": "ACTGAGGC", "PBM E-score": -0.0402}, {"sequence": "AATCTATC", "PBM E-score": -0.201}, {"sequence": "AACTGGAT", "PBM E-score": -0.00533}, {"sequence": "GCACGGGA", "PBM E-score": 0.0149}, {"sequence": "GACCTTTA", "PBM E-score": -0.0186}, {"sequence": "CTGCCCGC", "PBM E-score": -0.194}, {"sequence": "CGGTTATA", "PBM E-score": 0.255}, {"sequence": "GAAGCGTA", "PBM E-score": 0.223}, {"sequence": "CCTTTCCA", "PBM E-score": -0.132}, {"sequence": "GCCTCTAA", "PBM E-score": -0.16}, {"sequence": "CGATAACC", "PBM E-score": 0.188}, {"sequence": "GGTCAGAC", "PBM E-score": -0.316}, {"sequence": "ATCCATCA", "PBM E-score": -0.195}, {"sequence": "CAGTGCCC", "PBM E-score": -0.166}, {"sequence": "AATACTCC", "PBM E-score": -0.135}, {"sequence": "CGTCGGGC", "PBM E-score": -0.231}, {"sequence": "GAACTAAC", "PBM E-score": 0.085}, {"sequence": "CTTATCCC", "PBM E-score": -0.0201}, {"sequence": "CAGTCGAA", "PBM E-score": -0.102}, {"sequence": "AAGTTATT", "PBM E-score": 0.045}, {"sequence": "ACGCTAAA", "PBM E-score": 0.109}, {"sequence": "GGCCATCA", "PBM E-score": -0.267}, {"sequence": "ACCTTCAT", "PBM E-score": -0.0597}, {"sequence": "GATCTGAA", "PBM E-score": -0.213}, {"sequence": "GGCGAGAC", "PBM E-score": -0.0974}, {"sequence": "ATTTTGTC", "PBM E-score": -0.0517}, {"sequence": "CTGACTCA", "PBM E-score": -0.284}, {"sequence": "CAGTACGC", "PBM E-score": 0.037}, {"sequence": "CAATGTGG", "PBM E-score": -0.152}, {"sequence": "ACTAGATA", "PBM E-score": 0.102}, {"sequence": "ATAGTTTC", "PBM E-score": -0.0466}, {"sequence": "ATAAAGTG", "PBM E-score": -0.00653}, {"sequence": "CCTAGGAA", "PBM E-score": -0.186}, {"sequence": "GATGTCTA", "PBM E-score": 0.125}, {"sequence": "AATGGAAT", "PBM E-score": -0.162}, {"sequence": "CCTTTACG", "PBM E-score": 0.418}, {"sequence": "CTGAAGCC", "PBM E-score": -0.0835}, {"sequence": "GCTTTGGA", "PBM E-score": 0.0666}, {"sequence": "AACATCGC", "PBM E-score": -0.158}, {"sequence": "CAACTCCA", "PBM E-score": -0.291}, {"sequence": "AATTGGAT", "PBM E-score": -0.0619}, {"sequence": "AAACACGC", "PBM E-score": 0.0476}, {"sequence": "CAAGTAGG", "PBM E-score": -0.143}, {"sequence": "GACCTCTA", "PBM E-score": 0.104}, {"sequence": "GACGATCA", "PBM E-score": -0.0322}, {"sequence": "ACGTCGCG", "PBM E-score": 0.0842}, {"sequence": "GTCATAAA", "PBM E-score": 0.0807}, {"sequence": "AGAAATAT", "PBM E-score": 0.144}, {"sequence": "CGTCGAGA", "PBM E-score": 0.067}, {"sequence": "AATAACTA", "PBM E-score": 0.0341}, {"sequence": "CGGAGTAA", "PBM E-score": 0.00492}, {"sequence": "GACGTGGC", "PBM E-score": -0.245}, {"sequence": "ATTAAAAT", "PBM E-score": -0.0575}, {"sequence": "CTTATTCA", "PBM E-score": -0.114}, {"sequence": "TAATAAGA", "PBM E-score": 0.0807}]}]}
